ChEMBL document CHEMBL4888484, “Replenishing the malaria drug discovery pipeline: Screening and hit evaluation of the MMV Hit Generation Library 1 (HGL1) against asexual blood stage Plasmodium falciparum ,using a nano luciferase reporter read-out” (2022)
Hit rate of the full screen: of about 150,000 compounds, about 540 (0.36%) showed an effect of 50% or more. This is one part of the list.

tested on: Plasmodium falciparum; experiment: Primary screen in NF54 nanoGlo assay, in single point, at 2uM, 72h; a lower Z score goes with more inhibition; assay type: functional, Erythrocyte; details: timepoint 72 hour

Structure (SMILES)	% Inhibition	Z score
CC(C)(C)c1nc(-c2noc(Cc3c[nH]c4ccccc34)n2)co1	0%	0.02
COc1ccc(CNC(=O)c2cnc3[nH]c(=O)[nH]c3c2)cc1	2%	-0.21
CC(C)NC(=O)CS(=O)(=O)c1ccc2[nH]ncc2c1	-1%	0.24
CCC1(CC)Oc2ccc(NC(=O)N[C@@H]3C=C[C@H](CO)C3)cc2O1	-9%	1.15
CCN(CC(=O)N1CCO[C@@H](C)C1)C1CCCCC1	-16%	2.56
CNc1cccc(-c2cn(C(C)C)nn2)c1	-13%	2.43
O=C(NCn1cncn1)c1ccccc1O	7%	-0.89
COc1ccc(NC(=O)N2CCC[C@@H]2Cn2cncn2)c(OC)c1	-9%	1.6
Cc1c(CNCCc2ccccc2)c(C(=O)O)c(C)n1-c1ccccc1	-3%	0.51
COc1ccc([C@@H]2CCCN2C(=O)c2cc(C(C)=O)cn2C)cc1OC	17%	-2.17
Cc1c(C(=O)NCc2ccccc2)cc(-c2ccccc2)n1-c1ccccc1F	-3%	0.37
CN(C)C(=O)C1CCN(Cc2ncc(-c3ccccc3)s2)CC1	-23%	3.05
CCN1Cc2ccccc2C[C@H]1c1nc(CC(N)=O)n[nH]1	-4%	0.8
CCCN(CC(=O)NC)C(=O)c1c(C)noc1C(C)C	-4%	0.62
COc1ccc(F)c(CN2CC[C@@H]3CN(C(=O)c4ccsc4)C[C@@H]32)c1	-1%	0.1
O=C1CCCN1c1ccc(CNC(=O)N2CCC[C@H]2CO)cc1	-3%	0.44
COCC(=O)Nc1nnc(CCCOc2ccccc2)s1	-6%	0.86
COCCc1cccc(-c2ccc([C@H]3OCCN[C@@H]3C)cc2)c1	-10%	2.02
O=C([C@H]1CCCN(S(=O)(=O)c2ccc(-c3ccn[nH]3)o2)C1)N1CCCC1	-11%	1.26
c1cncc(-c2nc(-c3ccc4c(c3)OCO4)cs2)c1	14%	-1.68
Cc1ccnn1CCc1nc(CC(N)=O)nn1-c1ccc(F)cc1F	1%	-0.17
CC(C)Oc1cc(-c2cncnc2)nc(N)n1	16%	-2.03
O=C(C1CCC1)N1CCC[C@H]1c1nc(C2CCOCC2)no1	34%	-0.45
CCCC[C@@H](C(=O)Nc1cc(C)on1)N(C)Cc1nc2ccccc2n1CC	-8%	0.95
